#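 Protocol summary: plate cells (96-well), add compound at 5 concentrations, incubate 48 h, interpolate endpoints linearly. GI50 marks 50% less growth. At the TGI there is no net growth.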 Peptide text beside a SMILES is read from it.
# Test system: NCI-H322M lung
# Assay: NCI-60 cell line screen, 48 h
Structure (SMILES),TGI [µM],GI50 [µM]
COc1cc(C(c2cc(OC)c(OC)c(OC)c2)N2C(=O)CCC2C(=O)O)cc(OC)c1OC (stereo not given),> 100,–
CCN1CCC(O)(c2ccc(Cl)c(Cl)c2)C(C(=O)c2ccc(Cl)c(Cl)c2)C1 (stereo not given),27.7,–
Nc1nc(SCc2ccccc2[N+](=O)[O-])c2[nH]cnc2n1,> 100,–
C[C@@H]1CCC2[C@@H](C)[C@H](OC(=O)CCC(=O)NCCNC(=O)Cc3cc(=O)oc4cc(N(C)C)ccc34)O[C@@H]3O[C@]4(C)CC[C@@H]1C23OO4 (stereo not given in full),> 100,25.6
CSc1ccc(C(=O)/C=C/c2ccc(F)cc2)cc1,> 100,> 100
CN1CCN(CCCCNc2cc3c4ccccc4c(NCCCCN4CCN(C)CC4)cc3c3ccccc23)CC1,14.9,–
O=C(Nc1ccccc1)OCc1nc2c([nH]1)C(=O)C=CC2=O,26.7,–
OC(C1CCCC1=N/N=C1/CCCC1C(O)(C(F)(F)Cl)C(F)(F)Cl)(C(F)(F)Cl)C(F)(F)Cl (stereo not given),> 10,–
O=C(Nc1ccc([N+](=O)[O-])cc1)c1cc2ccccc2cc1O,6.53,0.312
CCCCCCCCCCCCOC(=S)NC,61.9,–
CN(Cc1ccccc1)c1nc(=[N+](C)C)ss1,> 100,–
CCc1ccccc1NC(=O)C1=C(C)NC(C)=C(C(=O)Nc2ccccc2CC)C1c1ccc(NC(C)=O)cc1,> 100,–
C#CCOc1cccc(Nc2ncnc3c2ncn3C2CCN(C(=O)CCl)C2)c1 (stereo not given),> 100,76.9
OCCCCC#Cc1ccccc1C#Cc1cccs1,46.2,19.9
CC(=O)C1C(=O)C(=O)N(c2ccc([N+](=O)[O-])cc2Cl)C1=O (stereo not given),> 100,–
CN(C)NC(=S)NC12CC3CC(CC(C3)C1)C2,> 100,–
c1ccc([P+](CCC[P+](c2ccccc2)(c2ccccc2)c2ccccc2)(c2ccccc2)c2ccccc2)cc1,> 100,48.4
C=CC[C@@]1(C#N)C[C@H](C[C@]2(C#N)C[C@H](CCl)OC(C)(C)O2)OC(C)(C)O1,> 100,–
FC(F)(F)c1nc2cc(SSc3cc4nc(C(F)(F)F)[nH]c4cc3Cl)c(Cl)cc2[nH]1,> 100,–
CC1=NN(c2cccc(Cl)c2)C2(C1)SCC(=O)N2c1nc2ccccc2s1 (stereo not given),86.8,–
COc1ccc2nc(C3=CN(C4OC(CO)C(O)C(O)C4O)C4C=CC=CC34)sc2c1 (stereo not given),70.2,24.2
CCOC(=O)C1CCn2c(nc3c(=O)n(C)c(=O)n(C)c32)S1 (stereo not given),> 100,–
CCCCCC/C=C/CCCCCCCc1cccc(O)c1C(=O)O,> 100,–

Structure (SMILES),TGI [µM],GI50 [µM]
COc1cc(C2c3cc4c(cc3OC(N3CCOCC3)C2C)OCO4)cc(OC)c1OC (stereo not given),89.6,–
CC(=O)Oc1cc(OC(C)=O)c2cc3c(cc2c1OC(C)=O)C(=O)C1(CCCC1)C3=O,31.3,–
COC(=O)C1(Cc2ccc3c(c2)CCC3)Cc2cc3c(cc2C1=O)CCC3 (stereo not given),> 46.4,–
CN(C)C(=O)CO/N=C1/C(c2c(O)[nH]c3ccccc23)=Nc2ccccc21,> 100,–
Cc1ccc(N2C(=O)C(O)=C(C(=O)C(C)(C)C)C2c2ccc([N+](=O)[O-])cc2)cc1 (stereo not given),82.1,–
CC1(C)CC(O)CCCCCCOc2c(CN)cccc2NC(=O)c2nc(cnc2N)-c2ccc(cc2)S1(=O)=O (stereo not given),3.4,1.32
CN(C)C(=S)/N=c1\ssc(=S)n1Cc1ccccn1,> 100,–
O=C(NN1C(=O)C(Cl)C1c1ccc([N+](=O)[O-])cc1)c1ccccc1O (stereo not given),> 100,–
CCc1c(-c2coc(CC/C(C)=C/c3ccccc3)n2)oc(OC)c(C)c1=O,> 100,–
Cn1c2cc(Cl)ccc2c2ccc3c(c21)C(=O)C=CC3=O,> 100,–
COc1cc(/C=N/O)nc(-c2ccccn2)c1,> 100,0.292
Cc1ccc(-c2nc3n(c2/C=N\N=C(N)N)CCS3)cc1,30.9,–
COc1ccc(CCNC(=S)/N=C\C2=C(O)c3ccccc3C2=O)cc1OC,> 100,–
CC(C)(C)[Si](Nc1ccccc1)(c1ccccc1)c1ccccc1,28.6,–
CNc1nc(=O)c(C#N)c(-c2ccc(C)cc2)s1,> 100,–
CCC(=O)n1c(=O)n(-c2ccc([N+](=O)[O-])cc2)c(=O)n1C(=O)CC,> 100,–
NCCCn1c2c(c3ccc([N+](=O)[O-])cc3c1=O)C(=O)c1cc(Cl)ccc1-2,0.373,< 0.0233
COC(=O)C(C(=O)C(=O)Nc1ccc(C)cc1C)c1nc2ccc([N+](=O)[O-])cc2[nH]c1=O (stereo not given),> 100,–
N#CNc1nc(C(=O)Nc2ccc(Cl)cc2)cc(-c2ccccc2)n1,> 100,–
COc1cc(C(=O)/C=C/c2c(-c3cccs3)nc3ccccn23)cc(OC)c1OC,17.9,3.02
NC(=O)N/N=C1/CCCC/C1=C\c1ccccc1,> 100,–
CCOC(=O)c1[nH]n(-c2ccccc2)c(=O)c1C=NC(=S)C(N)=S,> 100,–
CC[C@@]1(O)C(=O)OCc2c1cc1n(c2=O)Cc2c-1nc1ccccc1c2/C=N\NC(=O)C(N)=O,> 89.8,–

Structure (SMILES),TGI [µM],GI50 [µM]
O=C1C(Nc2cccc(O)c2)=C(Sc2ccc(Cl)cc2)C(=O)N1Cc1ccccc1,34.6,18.8
CCOC(=O)c1cn2ncnc(Oc3ccc(NC(=O)NCCN(CC)CC)c(Cl)c3)c2c1C,11.5,3.11
Cc1cccc2cc3ccc4ccccc4c3cc12,> 100,–
CCOC(CN(C)C(=O)OCC(Cl)(Cl)Cl)OCC,> 100,–
O=C(Cc1ccccc1)NN1C(=O)C(Cl)C1c1ccccc1 (stereo not given),> 100,–
Cc1cccc(NC(=O)Cc2nc3ccccc3s2)c1C,> 100,–
C=C1C(=O)O[C@H]2[C@H]1CC/C(COC(=O)NCc1cccc(OC)c1)=C\CC[C@@]1(C)O[C@@H]21,24.4,12
CCCCCCCCC[C@@H]1C[C@@H]2CCC3C(C(=O)OCCCCNC(=O)OCc4ccccc4)=C(C)NC(=N1)N32 (stereo not given in full),28.7,–
C[C@@]1(CBr)C[C@@](C)(/C=C/Cl)[C@@H](Cl)C[C@H]1Cl,28,–
COc1ccc(-c2c(C(C)=O)c(-c3ccccc3)n(C3OC(COC(C)=O)C(OC(C)=O)C(OC(C)=O)C3OC(C)=O)c(=S)c2C#N)cc1O (stereo not given),> 100,–
Cc1cc(S(=O)(=O)Nc2nc3ccsc3c(=O)n2Cc2ccccc2)c(S)cc1Cl,78.8,19.5
COc1cc(C(=C2SCCS2)c2nccc3cc(OC)c(OC)cc23)c([N+](=O)[O-])cc1OC,> 100,–
COC1=CC(=O)N(C(=O)[C@@H](OC(=O)[C@@H]2CCCN2C(=O)[C@@H]2CCCN2C(=O)[C@H](CC(C)C)N(C)C(=O)[C@@H](NC(=O)[C@@H](NC(=O)OCc2ccccc2)C(C)C)C(C)C)C(C)C)[C@H]1Cc1ccccc1 (HELM PEPTIDE1{[O=C(OCc1ccccc1)[*:2]].V.V.[meL].P.P.[COC1=CC(=O)N(C(=O)[C@@H](O[*:1])C(C)C)[C@H]1Cc1ccccc1]}$$$$V2.0),> 100,–
CCOC(=O)c1ccc2c(=O)n3c(C(=O)OCC)ccc3c(=O)n12,> 100,–
COC(=O)c1cccc2c1Oc1ccccc1S2,> 100,–
COc1ccc(Cn2cc3c(c2-c2ccccc2)CCc2cncnc2-3)cc1,29.7,14.6
Oc1oc(-c2ccccc2)nc1/C=C1/C=NN=N1,> 100,–
CCNC(=O)CCCCC(=O)c1c(C)[nH]c(/C=C2\N=C(c3ccc[nH]3)C=C2OC)c1C,27.5,10
CC(=O)O[C@H]1CC[C@H]2[C@@H]3CC[C@H]4Nc5c(cnn5S(C)(=O)=O)C[C@]4(C)[C@H]3CC[C@]12C,> 100,–
Clc1ccc2c(NCCN3CCN(c4ccnc(N5CCCC5)n4)CC3)ccnc2c1,11.8,2.9
CC1=NN(C(=O)c2ccccc2)C(=O)C1N=Nc1ccccc1C(=O)O (stereo not given),> 100,–
